Data from the supplement of paper PMC7826260.
The other results are listed elsewhere or left out. Each Rep nickase domain was tested in vitro on the same pool of single strands for 1 h at 37 °C with 3 µM enzyme; only the middle of the 90-letter strands is printed. The score is log2 (uncut reads / reads without enzyme); more negative means more cut, near 0 not cut, and no call is made. Because reads are shares of a total, they shift together; values above 0 arise when much of the pool is cut.

Legend:
Test in all cases: uncleaved DNA left, log2 of reads against the no-enzyme library (log2 ratio); higher = less cleavage (more negative = more Rep cleavage of the k-mer); sequences stand for … in CTCGTCCG…ACCGGAGA
[1] = test system: T1, Rep nickase domain of Muscovy duck circovirus
T1 sequence (residues 1-111 of Rep, tag left off): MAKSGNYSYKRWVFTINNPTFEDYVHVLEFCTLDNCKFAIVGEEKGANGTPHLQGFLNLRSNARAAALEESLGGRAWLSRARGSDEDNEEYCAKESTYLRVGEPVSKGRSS
Experimental: (§1)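 A pool of 90-nt single-stranded DNAs with seven random bases just before the constant AC of the nick site (name = the seven bases) was cut by 3 µM recombinant His6-SUMO-tagged Rep nickase domain (300 nM DNA, 50 mM HEPES pH 8.0, 50 mM NaCl, 1 mM MnCl2, 1 h, 37 °C, three replicates). Uncut DNA was amplified and sequenced.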

[2] = test system: T2, Rep nickase domain of banana bunchy top virus
T2 sequence (residues 1-94 of Rep, tag left off): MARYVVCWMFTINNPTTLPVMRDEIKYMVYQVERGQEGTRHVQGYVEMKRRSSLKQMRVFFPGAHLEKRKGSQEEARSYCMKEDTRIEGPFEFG
Experimental: as §1

[3] = test system: T3, Rep nickase domain of cabbage leaf curl virus
T3 sequence (residues 1-116 of Rep, tag left off): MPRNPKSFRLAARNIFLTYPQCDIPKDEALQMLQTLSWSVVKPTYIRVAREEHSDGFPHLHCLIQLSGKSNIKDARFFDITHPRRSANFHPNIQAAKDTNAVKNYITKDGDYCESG
Experimental: as §1

[4] = test system: T4, Rep nickase domain of chickpea chlorotic dwarf virus
T4 sequence (residues 1-124 of Rep, tag left off): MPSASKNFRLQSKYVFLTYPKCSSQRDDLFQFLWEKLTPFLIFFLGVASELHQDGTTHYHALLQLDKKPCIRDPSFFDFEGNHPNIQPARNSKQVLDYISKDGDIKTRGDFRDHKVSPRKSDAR
Experimental: as §1

[5] = test system: T5, Rep nickase domain of faba bean necrotic yellows virus
T5 sequence (residues 1-98 of Rep, tag left off): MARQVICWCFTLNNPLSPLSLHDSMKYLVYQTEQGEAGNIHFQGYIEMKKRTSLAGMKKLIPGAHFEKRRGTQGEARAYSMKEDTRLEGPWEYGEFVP
Experimental: as §1

[6] = test system: T6, Rep nickase domain of maize striate mosaic virus
T6 sequence (residues 1-117 of Rep, tag left off): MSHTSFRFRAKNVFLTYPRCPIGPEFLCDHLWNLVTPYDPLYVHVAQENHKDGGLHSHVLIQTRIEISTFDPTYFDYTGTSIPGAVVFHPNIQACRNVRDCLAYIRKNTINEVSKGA
Experimental: as §1

[7] = test system: T7, Rep nickase domain of porcine circovirus 2
T7 sequence (residues 2-116 of Rep, tag left off): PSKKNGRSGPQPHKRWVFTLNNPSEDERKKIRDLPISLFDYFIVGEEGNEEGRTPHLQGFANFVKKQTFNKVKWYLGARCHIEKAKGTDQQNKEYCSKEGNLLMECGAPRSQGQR
Experimental: as §1

[8] = test system: T8, Rep nickase domain of tomato golden mosaic virus
T8 sequence (residues 1-124 of Rep, tag left off): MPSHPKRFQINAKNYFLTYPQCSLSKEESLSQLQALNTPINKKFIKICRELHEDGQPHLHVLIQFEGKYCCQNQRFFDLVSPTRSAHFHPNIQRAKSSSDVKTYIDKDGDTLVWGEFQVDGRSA
Experimental: as §1

[9] = test system: T9, Rep nickase domain of tomato yellow leaf curl virus
T9 sequence (residues 1-136 of Rep, tag left off): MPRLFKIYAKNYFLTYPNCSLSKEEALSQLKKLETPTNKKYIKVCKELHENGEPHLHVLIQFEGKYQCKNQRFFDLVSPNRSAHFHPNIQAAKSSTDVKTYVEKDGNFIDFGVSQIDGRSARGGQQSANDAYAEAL
Experimental: as §1

[10] = test system: T10, Rep nickase domain of wheat dwarf virus
T10 sequence (residues 1-137 of Rep, tag left off): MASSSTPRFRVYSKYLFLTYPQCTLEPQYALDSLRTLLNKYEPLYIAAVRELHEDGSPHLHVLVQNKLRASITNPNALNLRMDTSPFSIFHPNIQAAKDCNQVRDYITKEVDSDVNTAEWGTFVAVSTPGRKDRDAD
Experimental: as §1

Sequence	uncleaved DNA left (log2) [1]	uncleaved DNA left (log2) [2]	uncleaved DNA left (log2) [3]	uncleaved DNA left (log2) [4]	uncleaved DNA left (log2) [5]	uncleaved DNA left (log2) [6]	uncleaved DNA left (log2) [7]	uncleaved DNA left (log2) [8]	uncleaved DNA left (log2) [9]	uncleaved DNA left (log2) [10]
ATGTCCG	0.169	0.0878	-0.72	-0.0178	0.244	-0.893	0.274	0.0216	0.0483	-0.0338
CAAGGTA	0.0375	0.0993	0.294	0.7	0.134	1.22	0.155	0.125	0.0178	0.0513
TGAACTC	0.00476	0.119	0.222	0.432	-0.0088	0.812	-0.0377	-0.0379	0.0912	0.148
GATGCGG	-0.0371	-0.136	-0.128	-0.12	-0.189	-0.281	0.00747	-0.0719	-0.0635	-0.117
GGCCTGG	-0.0492	0.0512	0.272	0.692	-0.0625	1.22	0.0248	0.157	-0.0948	-0.0117
AGCTCGT	0.0805	0.0173	-0.0799	0.0419	-0.0503	-0.335	-0.336	0.0142	0.0221	0.0982
CCCGGCT	-0.114	-0.0271	0.0386	-0.29	0.0483	-0.472	0.153	-0.057	-0.0106	0.00683
GTCGAAT	-0.0283	0.125	0.31	0.798	0.0275	1.66	-0.0338	0.0272	0.0407	0.164
CTAAAGT	-0.0398	0.0153	-0.00497	-0.421	0.0307	-1.07	-0.0551	-0.0242	-0.0471	-0.107
TCGGATT	0.144	-0.206	0.0788	0.0938	0.0903	1.43	-0.137	0.0715	-0.0101	0.00381
GCATTCT	-0.681	0.0255	-0.032	-0.875	0.0795	-0.291	-0.736	0.0742	0.113	-0.0248
GGAACCA	0.0619	0.157	0.725	1.44	-0.0149	1.98	0.11	0.0523	0.163	0.2
CAATCGC	-0.0116	0.014	-1.39	-1.59	0.000952	-1.32	0.0758	-0.188	0.114	-0.138
TGGTCAA	0.033	0.234	0.664	1.18	0.0611	1.53	0.158	0.0588	0.143	0.122
ATCCTCG	-0.141	-0.0272	-0.956	-0.459	-0.139	-1.21	0.0573	-0.171	-0.117	-0.131
ATTCTAG	0.037	-0.0214	-0.745	-0.503	0.0325	-1.15	0.21	0.0706	0.143	0.0315
ATGTAGG	-0.118	0.0227	0.127	0.738	0.00343	0.245	0.13	0.0784	-0.142	0.0259
GCGAGTT	0.0283	0.0707	0.112	0.213	-0.0519	1.09	0.0186	-0.121	-0.055	-0.0641
TTAGAAA	0.0196	-0.0266	0.24	0.128	-0.0499	0.0492	0.0655	0.164	-0.00583	0.0213
ACTGCAG	-0.189	-0.202	-0.896	-0.278	-0.0566	-1.17	0.0138	-0.104	-0.0617	-0.147
AGTGACT	0.104	0.0446	0.0294	0.712	-0.015	1.71	-0.0584	0.0345	-0.036	0.0607
AAGCCAT	0.112	-0.0312	0.271	0.337	0.102	1.08	-0.589	0.106	0.0694	0.189
CAGAAGA	-0.0299	-0.12	-0.284	-0.517	0.0386	-1.09	-0.055	0.0844	0.0251	-0.0695
CCTTGAA	-0.158	-0.205	-0.279	-0.756	-0.0852	-0.959	-0.151	-0.218	-0.239	-0.177
GCAAAGA	0.148	0.1	0.164	0.33	0.0396	-0.459	0.224	0.137	0.0798	0.13
TGCTTAA	0.219	0.109	0.168	-0.0163	0.0576	-0.175	0.0795	0.0989	0.254	0.125
AGGGGAG	0.243	0.226	-0.0883	0.385	0.194	-0.32	0.242	0.236	0.014	-0.00727
CCCGAGG	-0.122	-0.302	0.3	1.16	-0.245	1.19	-0.19	-0.0812	-0.26	-0.31
GCCAATC	0.0183	-0.000362	-0.0668	0.339	-0.093	0.0234	0.0902	-0.013	0.154	0.00547
CCTTCCT	-0.494	-0.205	-0.229	-2.38	-0.00899	-0.671	-1.12	-0.107	-0.15	-0.18
